Consider two molecules from patent US20250340652A1 (CHENGDU DI AO PHARMACEUTICAL GROUP, published 2025).

In assay [1] the target is T1, CC1H-Biotin (human, UniProt Q13018 21-367, biotin by EZ-Link Sulfo-NHS-LC-Biotin, 1.80 mol Biotin/mol protein; sites not given).
T1 construct: also called biotin-labeled CC1H
The assay can be described thus: BLI (Octet N1), CC1H-Biotin on SA sensor; BLI, CC1H-Biotin on sensor; no binding, also no significant binding in ELISA. Background: Biolayer interferometry detects binding as a change in optical thickness at a sensor tip.

Assay [2] concerns the target T1, CC1H-Biotin. The assay is described as follows: BLI (Octet N1), CC1H-Biotin on SA sensor, antibody 76.6-8.5 nM. The protocol:
Sartorius Octet® N1 molecular interaction instrument was used, the SA sensor (Sartorius, Octet® Streptavidin (SA) Biosensor, 18-5019) was selected.
The sensor was immersed in a PBSTB buffer (0.02% Tween-20 and 0.1% BSA were added in the PBS buffer) to be pre-wetted for 10 min or longer, and loaded onto the molecular interaction instrument.
The association constant (Ka), dissociation constant (Kd), and affinity constant (KD) were calculated and illustrated in Table 5 for details.

B1: B88 (antibody, human IgG4, kappa)
heavy: QVQLVQSGAEVKKPGSSVKVSCKASGGTFSSYTISWVRQAPGQGLEWMGRIIPILGIANYAQKFQGRVTITADKSTSTAYMELSSLRSEDTAVYYCATGVGMVRGDPWGQGTLVTVSSASTKGPSVFPLAPCSRSTSESTAALGCLVKDYFPEPVTVSWNSGALTSGVHTFPAVLQSSGLYSLSSVVTVPSSSLGTKTYTCNVDHKPSNTKVDKRV[human IgG4 Fc not shown]
light: [about 120 residues not shown][about 100 residues not shown]
notes: also called […]
With B1, the binding result with CC1H-Biotin [1] is “no binding (tested: 76.6 nM~8.5 nM)”.

B2: B88 (IgG4SP) (antibody)
heavy: QVQLVQSGAEVKKPGSSVKVSCKASGGTFSSYTISWVRQAPGQGLEWMGRIIPILGIANYAQKFQGRVTITADKSTSTAYMELSSLRSEDTAVYYCATGVGMVRGDPWGQGTLVTVSSASTKGPSVFPLAPCSRSTSESTAALGCLVKDYFPEPVTVSWNSGALTSGVHTFPAVLQSSGLYSLSSVVTVPSSSLGTKTYTCNVDHKPSNTKVDKRV[human IgG4 Fc with S228P (EU numbers) not shown]
light: [about 120 residues not shown][about 100 residues not shown]
notes: IgG4SP (S228P in the hinge, already in the heavy chain entry); also called B88SP; […]
As for B2, in the assay with CC1H-Biotin [2], the Kd was 0.145 nM, the koff is 8.04e-05 s⁻¹ and the on-rate constant (kon) was 556000 M⁻¹ s⁻¹.

Broadly, the Kd is the concentration at which binding is half-saturated. One may read the koff as the first-order rate constant of dissociation. In general, kon refers to the second-order rate constant of association. Low readings indicate slow association, high ones fast association.
